# Laboratory results taken from the supplement of paper PMC3334620.
# Over roughly 33,000 sequences, “E-score (-0.5 to 0.5)” has its median near -0.056; the highest 2% begin near 0.38. The list shows a part of the results.
# Target: Stb4 (UniProt P50104)
# Experiment: PBM E-score (8-mer binding enrichment) (E-score (-0.5 to 0.5)); higher = stronger / more preferred TF binding; most listed sequences are background and not binding sites
# Conditions: protein concentration: 200 nM; construct: GST-DNA-binding domain
# Outline: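 E-scores (a modified Wilcoxon-Mann-Whitney statistic) were assigned by the Universal PBM Analysis Suite to every ungapped eight-base word pooled with its reverse complement. The input came from universal all-10-mer Agilent arrays made double-stranded by primer extension and probed with GST-tagged yeast transcription factors at about 100-200 nM. Fluorescent anti-GST detected bound protein, and masliner normalised the scans.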
row,Sequence,PBM E-score
1,ACGTGTGA,-0.244
2,AACCGGTG,0.256
3,CTCGTACA,-0.14
4,TAGTTTGA,-0.121
5,TATTCACA,0.129
6,GCTGGGCC,-0.159
7,CGGGAATC,0.367
8,CACTCGCG,-0.0299
9,GCTTGACA,-0.158
10,AACTGTGT,-0.0951
11,AGCAAGCA,-0.241
12,GACGCTGA,-0.187
13,GCCCCCGC,-0.0333
14,ACGGCCAT,-0.0987
15,CGAGCAAC,0.183
16,TCCATGAA,0.0216
17,GGTTACCA,0.112
18,GTCGATTA,-0.00305
19,TCACGTAA,-0.184
20,CGGCCAAA,0.25
21,CACCGCTA,-0.163
22,ATTGTTAA,-0.12
23,CTGTTAAG,-0.284
24,AAAGGTCT,-0.0403
25,AGAGTGTA,-0.094

row,Sequence,PBM E-score
1,ATAGAACA,-0.154
2,CCTGTTAA,-0.209
3,CGTCACTA,-0.00656
4,AGCGGCAG,0.131
5,CCAATCAG,-0.287
6,ATGTACTA,-0.223
7,ACCTTTAG,-0.0713
8,CCGTGTTA,0.167
9,ACTAAGGC,-0.0898
10,GTAGCGGA,0.216
11,ATTGGCAA,-0.164
12,CGTCGGGA,0.383
13,CTGGTCGC,-0.0775
14,ATTTCCCG,0.371
15,ACGCGGAT,0.315
16,ATCACGCA,-0.157
17,AAAGCGCT,-0.0584
18,TAGAGGAA,-0.0516
19,AATCAAGC,-0.103
20,AGACACCC,-0.00588
21,CAACTTAC,-0.0406
22,CTGGCCCA,-0.24
23,AGGTGTCG,0.0831
24,AGCCGCTA,0.0454
25,CATCAGGA,0.114

row,Sequence,PBM E-score
1,TCAGAGCA,-0.316
2,AAATTCCA,-0.0536
3,GCACGGCA,0.109
4,GGGAGGTA,0.0266
5,ATATGATA,0.149
6,ACGCTGTG,-0.178
7,ACTCAAAT,-0.126
8,ACAACAAC,-0.214
9,GACTTAAC,-0.252
10,AATTAATA,0.171
11,CGCTCCAG,-0.00866
12,GAGTGCGC,-0.082
13,ATCACGTG,-0.0391
14,ATAATATA,-0.0573
15,ACTTATTC,0.093
16,ACCCGGTC,0.236
17,AAGCTTCG,0.101
18,CGCATGAC,-0.0198
19,TCGTGCAA,-0.179
20,CCGGCTTC,0.237
21,AAGTTGAT,-0.0732
22,GAGGGTGC,-0.16
23,CATAATCA,-0.184
24,CCTCTCTC,-0.202
25,AGTGTCTG,-0.158

row,Sequence,PBM E-score
1,ACTGATGC,-0.101
2,TAACATTA,0.0275
3,AGCAAAGC,-0.101
4,CCTCACGA,-0.218
5,TGCGAAAA,-0.0153
6,GTCCGGGA,0.266
7,ATAATTCC,0.123
8,ATCTCACA,-0.197
9,CCAATATC,0.137
10,ACCTACCC,0.181
11,CGTGCGAC,-0.126
12,TAGGACCA,-0.132
13,CATCCAAA,-0.2
14,AGTGGCAG,-0.149
15,ATTATATG,0.00361
16,GGTTCTCA,-0.0396
17,CACTTCGG,0.358
18,CTCAATGA,-0.224
19,CCCCGTAG,0.0142
20,CAAGCGCC,0.0861
21,CACAGGAC,-0.048
22,AGGGTTGC,-0.0529
23,AGTAGTTC,0.0901
24,GTCGGGCA,0.13
25,ACCTAGAG,-0.314

row,Sequence,PBM E-score
1,ACTTTAGG,-0.205
2,AAATCGAT,-0.337
3,CTTTGCAA,-0.0701
4,CCTCTCAG,-0.314
5,GACTCCGC,0.116
6,GGCGCTAA,-0.0634
7,AGACGTTG,-0.146
8,ACCGGAAC,0.419
9,ACCCGTTG,0.118
10,AAGAGAGG,-0.199
11,GAAAAGTC,-0.011
12,AGAATGCT,-0.287
13,AAATGTTG,-0.222
14,TACATGGA,-0.0258
15,CCAGCCAC,-0.212
16,ATTATTGA,-0.189
17,CCCCGTAA,-0.00165
18,GAGCCTAC,0.0484
19,ATGAAACG,-0.0253
20,AGTAACCC,-0.057
21,TTACGAAA,-0.0242
22,AAGCCATT,-0.0982
23,AACTATTG,-0.243
24,CCCAAAGC,-0.147
25,AGTGACAA,-0.273

row,Sequence,PBM E-score
1,CCTCTCCG,0.131
2,TCACGACA,-0.241
3,ACGACTCG,0.00456
4,AGTAGGCA,-0.0532
5,GAATATAA,0.105
6,CTCGGGTC,0.434
7,AGGAGGCC,-0.201
8,CGGTAATA,0.313
9,GATACTAC,0.045
10,ATAGCTTC,-0.039
11,CCATGTAG,-0.0753
12,ATCTGACA,-0.0757
13,AGCTCTCG,0.187
14,AATGCCCT,-0.158
15,AAGAAAGA,-0.0976
16,ACGGTCGG,0.294
17,TGATCGCA,-0.247
18,CTAGAAAC,-0.159
19,GGTGCCGA,0.402
20,AGATGAGG,-0.113
21,AGGAGTGC,-0.155
22,GAAACCTC,-0.0492
23,ACAGAAAC,-0.168
24,CGTATCTA,0.015
25,CAGGTAAC,-0.127

row,Sequence,PBM E-score
1,CCCTCAAC,-0.0392
2,CGATATCG,0.121
3,GATAGACA,-0.23
4,CCAGTCGG,0.279
5,ATCCTGTG,-0.13
6,ATTAGTAC,-0.131
7,AAGTATGG,-0.133
8,ATGGGCGG,0.15
9,AATAATTA,0.0396
10,CTAAGATC,0.0238
11,GGTAGGTA,0.0595
12,GCGTCCGA,0.282
13,CCCAATAG,-0.29
14,AGCGTTTC,-0.00279
15,CCACATTC,-0.0745
16,GCAGATCC,0.0981
17,AGGGGGCC,-0.157
18,CATTAGCA,-0.0663
19,AGGTGACT,-0.198
20,CTTTCCGC,0.324
21,TGACCTAA,0.0344
22,GCCCGGCC,0.136
